{"source": "PubChem BioAssay AID1259407", "about": "(Chemical Carcinogenesis Research Information System (CCRIS), 2018)", "tested_on": "CCRIS mutagenicity, Ames/micronucleus/aberration tests", "test": "CCRIS mutagenicity studies", "key": {"[1]": {"conditions": "End Point: In vitro chromosomal aberrations, Test System: Chinese hamster lung (CHL/IU) cells, Metabolic Activation: None"}, "[2]": {"conditions": "Test System: AMES SALMONELLA TYPHIMURIUM, Strain/Indicator: TA100, Metabolic Activation: NONE, Method: PREINCUBATION"}, "[3]": {"conditions": "Test System: MOUSE LYMPHOMA, Strain/Indicator: L5178Y (TK+/TK-), Metabolic Activation: NONE, Method: SUSPENSION/PLATE"}, "[4]": {"conditions": "Test System: AMES SALMONELLA TYPHIMURIUM, Strain/Indicator: TA100, Metabolic Activation: RAT, LIVER, S-9, AROCLOR 1254, Method: STANDARD PLATE"}, "[5]": {"conditions": "Test System: AMES SALMONELLA TYPHIMURIUM, Strain/Indicator: TA98, Metabolic Activation: RAT, LIVER, S-9, AROCLOR 1254, Method: STANDARD PLATE"}, "[6]": {"conditions": "Test System: AMES SALMONELLA TYPHIMURIUM, Strain/Indicator: TA100, Metabolic Activation: NONE, Method: STANDARD PLATE"}}, "note": "“Also recorded” adds a separate entry of the source. Some entries of the source have several records that differ or are many. This list holds those alone. No rule for the calls is given here. There may be further records. Values given together differ, and nothing given here explains why; dose, time, organism, isomer or construct need not be as stated for each record. Marks in square brackets tell the records apart. The letters are not those of the source and start again with each entry. Counts like (3×) stand for listed records that agree."}
{"smiles": "CN(C)c1ccccc1", "values": [{"measurement": "mutagenic call", "setting": "[1]", "result": "active; positive (structural changes and ploidy); weak response. precipitation in cultur; also recorded: active; positive (structural changes). precipitation at all doses, toxicity and precipit; also recorded: active; positive (structural changes). precipitation at 0.4, 0.6 and 0.8 mg/ml"}]}
{"smiles": "O=c1cc(CO)occ1O", "values": [{"measurement": "mutagenic call", "setting": "[2]", "result": "active; positive [study A] and inactive; negative [study B] and active; positive [study C]"}]}
{"smiles": "Nc1ccccc1S(=O)(=O)O", "values": [{"measurement": "mutagenic call", "setting": "Test System: AMES SALMONELLA TYPHIMURIUM, Strain/Indicator: TA98, Metabolic Activation: NONE, Method: PREINCUBATION", "result": "active; positive [100 to 6667 µg/plate] and inactive; negative [33 to 3333 µg/plate]"}]}
{"smiles": "c1ccc(Nc2ccccc2)cc1", "values": [{"measurement": "mutagenic call", "setting": "[1]", "result": "inactive; negative. toxicity at 0.10 mg/ml; also recorded: active; positive (structural changes) (2×)"}]}
{"smiles": "CNc1ccc(N(CCO)CCO)cc1[N+](=O)[O-]", "values": [{"measurement": "mutagenic call", "setting": "[3]", "result": "active; positive [study A] and inactive; negative [study B]"}]}
{"smiles": "O=NN1CCC[C@H]1c1cccnc1", "values": [{"measurement": "mutagenic call", "setting": "[4]", "result": "active; positive [study A] and inactive; negative [study B]"}]}
{"smiles": "ClC1C(Cl)C(Cl)C(Cl)C(Cl)C1Cl", "note": "(stereo not drawn)", "values": [{"measurement": "mutagenic call", "setting": "[5]", "result": "inactive; negative [sample A, study B] and active; positive [sample B, study A] and inactive; negative [sample B, study B]"}]}
{"smiles": "CC(=O)C(Cl)Cl", "values": [{"measurement": "mutagenic call", "setting": "[6]", "result": "inactive; negative [study A] and active; positive [study B]"}]}
{"smiles": "C[C@H]1CCCC(=O)CCC/C=C/c2cc(O)cc(O)c2C(=O)O1", "values": [{"measurement": "mutagenic call", "setting": "End Point: IN VITRO CHROMOSOMAL ABERRATIONS, Test System: CHINESE HAMSTER OVARY CELLS, Metabolic Activation: RAT, LIVER, S-9, AROCLOR 1254", "result": "inactive; negative and active; positive"}, {"measurement": "mutagenic call", "setting": "[6]", "result": "inactive; negative; toxicity at 1000 ug/plate [study A]; also recorded: inactive; negative [study B]"}, {"measurement": "mutagenic call", "setting": "Test System: AMES SALMONELLA TYPHIMURIUM, Strain/Indicator: TA1538, Metabolic Activation: NONE, Method: STANDARD PLATE", "result": "inactive; negative; toxicity at 1000 ug/plate [study A]; also recorded: inactive; negative [study B]"}]}
{"smiles": "CCOc1ccc([N+](=O)[O-])cc1", "values": [{"measurement": "mutagenic call", "setting": "[2]", "result": "inactive; negative [study A] and active; positive [study B]"}]}
{"smiles": "O=C(CBr)c1ccc(-c2ccccc2)cc1", "values": [{"measurement": "mutagenic call", "setting": "[2]", "result": "inactive; negative and active; positive"}]}
{"smiles": "CCCCBr", "values": [{"measurement": "mutagenic call", "setting": "Test System: Ames Salmonella typhimurium, Strain/Indicator: TA98, Metabolic Activation: None, Method: Gas/vapor modification", "result": "inactive; negative (growth inhibition observed at highest dose); also recorded: inactive; negative (growth inhibition observed at 2 highest doses)"}, {"measurement": "mutagenic call", "setting": "Test System: Ames Salmonella typhimurium, Strain/Indicator: TA98, Metabolic Activation: Rat, Liver, S-9, Phenobarbital and 5,6-benzoflavone, Method: Gas/vapor modification", "result": "inactive; negative (growth inhibition observed at highest dose); also recorded: inactive; negative (growth inhibition observed at 2 highest doses)"}, {"measurement": "mutagenic call", "setting": "Test System: Ames Salmonella typhimurium, Strain/Indicator: TA100, Metabolic Activation: None, Method: Gas/vapor modification", "result": "active; positive; also recorded: active; positive (growth inhibition observed at 2 highest doses)"}, {"measurement": "mutagenic call", "setting": "Test System: Ames Salmonella typhimurium, Strain/Indicator: TA100, Metabolic Activation: Rat, Liver, S-9, Phenobarbital and 5,6-benzoflavone, Method: Gas/vapor modification", "result": "active; positive; also recorded: active; positive (growth inhibition observed at 2 highest doses)"}, {"measurement": "mutagenic call", "setting": "Test System: Ames Salmonella typhimurium, Strain/Indicator: TA1535, Metabolic Activation: None, Method: Gas/vapor modification", "result": "active; positive; also recorded: active; positive (growth inhibition observed at 2 highest doses)"}, {"measurement": "mutagenic call", "setting": "Test System: Ames Salmonella typhimurium, Strain/Indicator: TA1535, Metabolic Activation: Rat, Liver, S-9, Phenobarbital and 5,6-benzoflavone, Method: Gas/vapor modification", "result": "active; positive; also recorded: active; positive (growth inhibition observed at 2 highest doses)"}, {"measurement": "mutagenic call", "setting": "Test System: Ames Salmonella typhimurium, Strain/Indicator: TA1537, Metabolic Activation: None, Method: Gas/vapor modification", "result": "inactive; negative (growth inhibition observed at highest dose); also recorded: inactive; negative (growth inhibition observed at 2 highest doses)"}, {"measurement": "mutagenic call", "setting": "Test System: Ames Salmonella typhimurium, Strain/Indicator: TA1537, Metabolic Activation: Rat, Liver, S-9, Phenobarbital and 5,6-benzoflavone, Method: Gas/vapor modification", "result": "inactive; negative (growth inhibition observed at highest dose); also recorded: inactive; negative (growth inhibition observed at 2 highest doses)"}, {"measurement": "mutagenic call", "setting": "Test System: E. coli, Strain/Indicator: WP2uvrA/pKM101, Metabolic Activation: None, Method: Gas/vapor modification", "result": "active; positive; also recorded: active; positive (growth inhibition observed at 2 highest doses)"}, {"measurement": "mutagenic call", "setting": "Test System: E. coli, Strain/Indicator: WP2uvrA/pKM101, Metabolic Activation: Rat, Liver, S-9, Phenobarbital and 5,6-benzoflavone, Method: Gas/vapor modification", "result": "active; positive; also recorded: active; positive (growth inhibition observed at 2 highest doses)"}]}
{"smiles": "C=C(C)C(=O)OCCOC(=O)C(=C)C", "values": [{"measurement": "mutagenic call", "setting": "[3]", "result": "inactive; negative [study A]; also recorded: active; positive. reevaluation of results: equivocal [study B]"}, {"measurement": "mutagenic call", "setting": "Test System: MOUSE LYMPHOMA, Strain/Indicator: L5178Y (TK+/TK-), Metabolic Activation: RAT, LIVER, S-9, AROCLOR 1254, Method: SUSPENSION/PLATE", "result": "active; positive [study A]; also recorded: active; positive. reevaluation of results: positive [study B]"}, {"measurement": "mutagenic call", "setting": "Test System: Mouse lymphoma, Strain/Indicator: L5178Y (tk+/tk-), Metabolic Activation: None, Method: Suspension/plate", "result": "active; positive and inactive; negative"}]}
{"smiles": "COc1ccc(N)c(OC)c1", "values": [{"measurement": "mutagenic call", "setting": "Test System: AMES SALMONELLA TYPHIMURIUM, Strain/Indicator: TA98, Metabolic Activation: HAMSTER, LIVER, S-9, AROCLOR 1254, Method: STANDARD PLATE", "result": "inactive; negative [0.3 to 1000 µg/plate] and active; positive [0.3 to 10000 µg/plate] and active; positive [10 to 10000 µg/plate]"}, {"measurement": "mutagenic call", "setting": "[5]", "result": "inactive; negative [0.3 to 10000 µg/plate] and inactive; negative [10 to 10000 µg/plate] and active; positive [10 to 10000 µg/plate]"}, {"measurement": "mutagenic call", "setting": "Test System: AMES SALMONELLA TYPHIMURIUM, Strain/Indicator: TA1537, Metabolic Activation: HAMSTER, LIVER, S-9, AROCLOR 1254, Method: STANDARD PLATE", "result": "inactive; negative [0.3 to 10000 µg/plate] and inactive; negative [0.3 to 333.3 µg/plate] and active; positive [10 to 10000 µg/plate]"}, {"measurement": "mutagenic call", "setting": "Test System: AMES SALMONELLA TYPHIMURIUM, Strain/Indicator: TA1538, Metabolic Activation: HAMSTER, LIVER, S-9, AROCLOR 1254, Method: STANDARD PLATE", "result": "active; positive [0.3 to 10000 µg/plate] and inactive; negative [0.3 to 333.3 µg/plate] and active; positive [10 to 10000 µg/plate]"}, {"measurement": "mutagenic call", "setting": "Test System: AMES SALMONELLA TYPHIMURIUM, Strain/Indicator: TA1538, Metabolic Activation: HAMSTER, LIVER, S-9, Method: STANDARD PLATE", "result": "inactive; negative [0.3 to 10000 µg/plate] and inactive; negative [0.3 to 333.3 µg/plate] and active; positive [10 to 10000 µg/plate]"}]}
{"smiles": "[CH3][Hg][Cl]", "values": [{"measurement": "mutagenic call", "setting": "End Point: IN VITRO CHROMOSOMAL ABERRATIONS, Test System: HUMAN PERIPHERAL LYMPHOCYTES, Metabolic Activation: NONE", "result": "active; positive (structural changes and ploidy); also recorded: active; positive (structural changes) (2×)"}]}
{"smiles": "S=C1NCCN1", "values": [{"measurement": "mutagenic call", "setting": "Test System: AMES SALMONELLA TYPHIMURIUM, Strain/Indicator: TA1535, Metabolic Activation: HAMSTER, LIVER, S-9, AROCLOR 1254 (10%), Method: PREINCUBATION", "result": "inactive; negative and active; positive"}, {"measurement": "mutagenic call", "setting": "Test System: AMES SALMONELLA TYPHIMURIUM, Strain/Indicator: TA1535, Metabolic Activation: NONE, Method: PREINCUBATION", "result": "inactive; negative and active; positive"}, {"measurement": "mutagenic call", "setting": "Test System: AMES SALMONELLA TYPHIMURIUM, Strain/Indicator: TA1535, Metabolic Activation: RAT, LIVER, S-9, AROCLOR 1254 (10%), Method: PREINCUBATION", "result": "inactive; negative and active; positive"}]}
{"smiles": "Nc1ncc([N+](=O)[O-])s1", "values": [{"measurement": "mutagenic call", "setting": "Test System: AMES SALMONELLA TYPHIMURIUM, Strain/Indicator: TA100, Metabolic Activation: HAMSTER, LIVER, S-9, Method: STANDARD PLATE", "result": "inactive; negative (2×) and active; positive"}, {"measurement": "mutagenic call", "setting": "Test System: AMES SALMONELLA TYPHIMURIUM, Strain/Indicator: TA100, Metabolic Activation: MOUSE, LIVER, S-9, AROCLOR 1254, Method: STANDARD PLATE", "result": "inactive; negative (2×) and active; positive"}, {"measurement": "mutagenic call", "setting": "Test System: AMES SALMONELLA TYPHIMURIUM, Strain/Indicator: TA100, Metabolic Activation: MOUSE, LIVER, S-9, Method: STANDARD PLATE", "result": "inactive; negative (2×) and active; positive"}, {"measurement": "mutagenic call", "setting": "[4]", "result": "inactive; negative (2×) and active; positive"}, {"measurement": "mutagenic call", "setting": "Test System: AMES SALMONELLA TYPHIMURIUM, Strain/Indicator: TA100, Metabolic Activation: RAT, LIVER, S-9, Method: STANDARD PLATE", "result": "inactive; negative (2×) and active; positive"}]}
{"smiles": "O=C1c2ccccc2C(=O)c2ccccc21", "values": [{"measurement": "mutagenic call", "setting": "Test System: AMES SALMONELLA TYPHIMURIUM, Strain/Indicator: TA98, Metabolic Activation: RAT, LIVER, S-9, AROCLOR 1254 (10%), Method: PREINCUBATION", "result": "inactive; negative; 100% pure and inactive; negative and active; positive; 99.4% pure"}, {"measurement": "mutagenic call", "setting": "Test System: AMES SALMONELLA TYPHIMURIUM, Strain/Indicator: TA100, Metabolic Activation: RAT, LIVER, S-9, AROCLOR 1254 (10%), Method: PREINCUBATION", "result": "inactive; negative; 100% pure and inactive; negative and active; positive; 99.4% pure"}, {"measurement": "mutagenic call", "setting": "Test System: AMES SALMONELLA TYPHIMURIUM, Strain/Indicator: TA1537, Metabolic Activation: NONE, Method: PREINCUBATION", "result": "inactive; negative [study A] and inactive; negative; 99.8% pure [study B]"}]}
